The values that follow come from paper PMC7819943, “Rice protein-binding microarrays: a tool to detect cis-acting elements near promoter regions in rice”.

The list shows a part of the results.

The target of the experiment is T1, OsWOX13 (Oryza sativa, UniProt Q5QMM3 1-267).
T1 sequence: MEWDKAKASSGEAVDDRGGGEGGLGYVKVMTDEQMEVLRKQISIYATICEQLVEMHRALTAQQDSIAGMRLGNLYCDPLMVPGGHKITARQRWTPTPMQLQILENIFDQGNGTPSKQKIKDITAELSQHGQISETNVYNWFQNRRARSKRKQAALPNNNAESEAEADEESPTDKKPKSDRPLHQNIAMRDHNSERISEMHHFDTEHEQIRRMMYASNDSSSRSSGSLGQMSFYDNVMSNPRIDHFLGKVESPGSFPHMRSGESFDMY
The experiment in a line: protein-binding microarray (RPBM); PBS, 2% BSA, 51.3 ng/ul salmon testes DNA, 50 uM zinc acetate, 200 nM TF, 25 C, 1 h; high values mean tight binding. The note with it: protein: recombinant; tags: N-terminal polyhistidine and DsRed monomer fusion (pET32a); label: CyDye5-dUTP incorporated in the synthesized complementary strand; 3' TTTTT single-stranded linker to array surface; dsDNA, one strand shown. In outline: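 For the binding signal, per-feature fluorescence intensity was read in arbitrary units on an Axon 4000B scanner. Before scanning, a 2% BSA-blocked custom Agilent array made double-stranded with Cy5-dUTP was washed after 1 h at 25 °C with 200 nM protein and 50 µM zinc acetate. The proteins were Ni–NTA-purified transcription factors with N-terminal polyhistidine and DsRed fusions, expressed in E. coli BL21-CodonPlus.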
For the sequence “TTCCAATTGACCAGGCCCTCAATCATACATCATGCACATCCGGAGTCACCTAGTGCAG”, the binding signal was 17500 fluorescence intensity (a.u.). In the case of “AGATGACTGAATAGTGAATTGATCTGTGAAAATTGTTCGACGGAGTCACCTAGTGCAG”, the binding signal is 20600 fluorescence intensity (a.u.). “TAAATTTTAAAATTTAAATTTTGACTTAGCATAAGTAAAACGGAGTCACCTAGTGCAG”: the binding signal was 9210 fluorescence intensity (a.u.). In the case of “TCTTCCTGATTTTCTCGCAGAGCTCCCCTGATTCGACCACCGGAGTCACCTAGTGCAG”, the binding signal is 3360 fluorescence intensity (a.u.). Take “ACATACGTATTAATTTCGTGATTTCCATATAATCAAAACACGGAGTCACCTAGTGCAG”: the binding signal was 5740 fluorescence intensity (a.u.). The result for “GGATTTAATAATTAAACACAAGTATCACACCAACAATAAACGGAGTCACCTAGTGCAG” reads 3930 fluorescence intensity (a.u.); that for “ACATTCCAAAATTTGACCAAATTTGTTCACTCGTTGACTGCGGAGTCACCTAGTGCAG”, 3660 fluorescence intensity (a.u.). “AAAGCTTATTAATTTGCTCCTAGACCAATGTATGCCGTGCCGGAGTCACCTAGTGCAG”: the binding signal was 3470 fluorescence intensity (a.u.). As for “CTTTTAACATGGCCCATAATTGCATCGGAAGCATGGGCTGCGGAGTCACCTAGTGCAG”, the figure is 11500 fluorescence intensity (a.u.); as for “GTACTACTAATAATTAATTTCTACAAGTTCTTCGATCGAGCGGAGTCACCTAGTGCAG”, 12700 fluorescence intensity (a.u.). Take “CCAAAATGATCATTATATATGTTTATGCATCAAGACCAAACGGAGTCACCTAGTGCAG”: the binding signal was 4860 fluorescence intensity (a.u.). Take “CTCGCATACTAACTGGACATGATCAGACTCCTAATTGTAACGGAGTCACCTAGTGCAG”: the binding signal is 6730 fluorescence intensity (a.u.). In the case of “GTTTGAATCTATCAATCAAACATGCACGTCAAACTTAATTCGGAGTCACCTAGTGCAG”, the binding signal was 12100 fluorescence intensity (a.u.). As for “AATTAATTATCATCATTACCGCAAATTCTCAAAAGTCAGGCGGAGTCACCTAGTGCAG”, the figure is 41200 fluorescence intensity (a.u.).

“GCAATTGACGAGTGGCATTGCTTTCTCTATCATTTTATCACGGAGTCACCTAGTGCAG”: the binding signal is 11300 fluorescence intensity (a.u.).

Consider “CTAAAATTGGCACATCCTTAGAAAAGCGAATGCTTCGGTTCGGAGTCACCTAGTGCAG”, for which the binding signal is 8030 fluorescence intensity (a.u.).

Take “TAATTAATAGATACAATTGCCTTCCCAGGACTCTATCCATCGGAGTCACCTAGTGCAG”: the binding signal was 14500 fluorescence intensity (a.u.). With “TTAAATAGGCTTAATAAATTCATCTCATGGTTTACCGGCGCGGAGTCACCTAGTGCAG”, the binding signal is 6110 fluorescence intensity (a.u.).

With “GGTTAATTAAAATTTGGGCGCTGTGGTGGTGTGCATACGGCGGAGTCACCTAGTGCAG”, the binding signal was 42000 fluorescence intensity (a.u.). The result for “ATGACTAGATAGGTTATCAGAAATATTGTACTTGTATGATCGGAGTCACCTAGTGCAG” reads 3940 fluorescence intensity (a.u.); that for “ATAGTGTAATTATACTACAATTTTATTATATTTACATTTGCGGAGTCACCTAGTGCAG”, 5360 fluorescence intensity (a.u.); that for “AGGTATAATTGTAATTATGCAGTAATTGTGGAAAGGCCAACGGAGTCACCTAGTGCAG”, 36100 fluorescence intensity (a.u.). Turning to “AGTAATTTCATCCTTCCCTTTTGTAATCATACAACAGAAGCGGAGTCACCTAGTGCAG”, the binding signal was 6200 fluorescence intensity (a.u.).

For the sequence “CCCTAGTGATTATGCGCACAACCAGGTGGTGCGGACTGCGCGGAGTCACCTAGTGCAG”, the binding signal was 3950 fluorescence intensity (a.u.). The result for “GACTCTGACTGTCAAAATGTCCAAAATGGCAGGCAGCCTTCGGAGTCACCTAGTGCAG” reads 3990 fluorescence intensity (a.u.); that for “AATCTATGTATAATTTGAATTATAAACCACATCATCTTAACGGAGTCACCTAGTGCAG”, 3590 fluorescence intensity (a.u.).

With “TTAGCAAATTTAACCTATCAACTTGTGCAAGAGTCAAACTCGGAGTCACCTAGTGCAG”, the binding signal was 7680 fluorescence intensity (a.u.). As for “TTTAAACTGACACATGGGTCCCACCTTTTATTTTGCTTCCCGGAGTCACCTAGTGCAG”, the figure is 7490 fluorescence intensity (a.u.); as for “TATCAATTACATCTTTGTTTCCTTTTCAGTTCAATTGCATCGGAGTCACCTAGTGCAG”, 11300 fluorescence intensity (a.u.); as for “CACAGACACATTTGGTTAATTACATACCTTGTACACTTCACGGAGTCACCTAGTGCAG”, 6260 fluorescence intensity (a.u.). The result for “ATTCAATCTTTGTCCTCCTCCCGTTCTCTCTCTCTCTCTTCGGAGTCACCTAGTGCAG” reads 4790 fluorescence intensity (a.u.). As for “TAATATAATTGAAATATAATTAATACATTGTAACTATATTCGGAGTCACCTAGTGCAG”, the figure is 20800 fluorescence intensity (a.u.); as for “AATAAATTTCATGCTTATCATAGGGATAATGTGCCTTCGTCGGAGTCACCTAGTGCAG”, 7300 fluorescence intensity (a.u.); as for “ATAGATAAGAATTAATTTCAGCATGATGTAGATTTTGTTACGGAGTCACCTAGTGCAG”, 3660 fluorescence intensity (a.u.). Turning to “CTTAATTAATCCGTCATTAGTAAATATTTACGGTAGCACCCGGAGTCACCTAGTGCAG”, the binding signal was 48400 fluorescence intensity (a.u.). As for “TTTAATTGATGGAGCGGTAATGGTAATAGTTCTTCACTCACGGAGTCACCTAGTGCAG”, the figure is 57300 fluorescence intensity (a.u.). In the case of “ACGTGTCACTGATTATAATACGTACTCCCCGTTTCATAATCGGAGTCACCTAGTGCAG”, the binding signal was 7670 fluorescence intensity (a.u.). For the sequence “TACAAAATTTAAAATCATGTTATGATTTTAATATATTTGACGGAGTCACCTAGTGCAG”, the binding signal is 16800 fluorescence intensity (a.u.). The result for “AGAGCACTTAATTGTCGGATTTACTCCCACGTTGATAATCCGGAGTCACCTAGTGCAG” reads 8130 fluorescence intensity (a.u.); that for “ATGATTGGGCGAGGCCTATAAAGCCCCTGCGCCCATCTCTCGGAGTCACCTAGTGCAG”, 21800 fluorescence intensity (a.u.); that for “ATCTGATATGTTTCTGATTTCTGAACCGTCCGGCTCGCGGCGGAGTCACCTAGTGCAG”, 11700 fluorescence intensity (a.u.). As for “TTGAATGGCAGAAAACACTTGATTAGGTTCTGTTTGGCACCGGAGTCACCTAGTGCAG”, the figure is 9030 fluorescence intensity (a.u.).
